# Reference: the supplement of paper PMC12067230
# This is a noisy data set.
# Experiment: amyloid nucleation score relative to library mode (yeast Sup35 reporter selection) (log enrichment difference); higher = more amyloid nucleation; sequences are the first 22 residues of the Bri2 peptide extended by up to 12 random residues
# Conditions: random library (experiment): 1;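 active = nucleation score significantly above 0 at FDR 0.05; inactive = not significantly above 0 or absent from output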
# 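Further: [psi-pin-] Saccharomyces cerevisiae expressing SupN fusions, induced by 100 µM Cu2SO4, selected 7 d at 30 °C without adenine and uracil, scored by deep sequencing of output versus input.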
row,Sequence,amyloid nucleation score
1,EASNCFAIRHFENKFAVETLICMDMHVHGRMRLD,inactive
2,EASNCFAIRHFENKFAVETLICMDPTVRS,inactive
3,EASNCFAIRHFENKFAVETLICMDRGDTALSDRP,-0.0385
4,EASNCFAIRHFENKFAVETLICMDRPR,-0.129
5,EASNCFAIRHFENKFAVETLICMDSCMANCVSLA,3.81
6,EASNCFAIRHFENKFAVETLICMDSSWPYSLVRK,2.33
7,EASNCFAIRHFENKFAVETLICMDVH,-0.309
8,EASNCFAIRHFENKFAVETLICMEDEGSTVIAYG,inactive
9,EASNCFAIRHFENKFAVETLICMEEVWEPKAWAA,inactive
10,EASNCFAIRHFENKFAVETLICMEKASVSSVFWP,2.48
11,EASNCFAIRHFENKFAVETLICMEMPREWGRLSF,3.85
12,EASNCFAIRHFENKFAVETLICMENSSCVECCGG,inactive
13,EASNCFAIRHFENKFAVETLICMEWRGVVFRMHP,inactive
14,EASNCFAIRHFENKFAVETLICMEYARCRTRVV,inactive
15,EASNCFAIRHFENKFAVETLICMEYVPRPLIQIQ,-0.111
16,EASNCFAIRHFENKFAVETLICMFAYSNDRLMR,inactive
17,EASNCFAIRHFENKFAVETLICMFG,7.05
18,EASNCFAIRHFENKFAVETLICMFLVHL,inactive
19,EASNCFAIRHFENKFAVETLICMFSRGYQLVIAW,inactive
20,EASNCFAIRHFENKFAVETLICMFTVNN,6.8

row,Sequence,amyloid nucleation score
1,EASNCFAIRHFENKFAVETLICMFWIATRWQANG,inactive
2,EASNCFAIRHFENKFAVETLICMGATRLSRILHT,inactive
3,EASNCFAIRHFENKFAVETLICMGDCGLG,5.33
4,EASNCFAIRHFENKFAVETLICMGDPNDNGMFKP,2.16
5,EASNCFAIRHFENKFAVETLICMGHRVEYMEVKS,3.82
6,EASNCFAIRHFENKFAVETLICMGKHQLQ,0.987
7,EASNCFAIRHFENKFAVETLICMGMYGLSSYGGC,inactive
8,EASNCFAIRHFENKFAVETLICMGPSDVWHAGFV,2.55
9,EASNCFAIRHFENKFAVETLICMGQYLNSMCCHR,-0.0572
10,EASNCFAIRHFENKFAVETLICMGVTSVRSITRC,2.31
11,EASNCFAIRHFENKFAVETLICMGVVKCVERVSR,2.22
12,EASNCFAIRHFENKFAVETLICMH,-0.585
13,EASNCFAIRHFENKFAVETLICMHALMGRRQMAR,inactive
14,EASNCFAIRHFENKFAVETLICMHCDKFGNHDML,3.92
15,EASNCFAIRHFENKFAVETLICMHDQR,inactive
16,EASNCFAIRHFENKFAVETLICMHSTWWKFNLAF,inactive
17,EASNCFAIRHFENKFAVETLICMHVFNVFDFCTP,inactive
18,EASNCFAIRHFENKFAVETLICMI,6.58
19,EASNCFAIRHFENKFAVETLICMICALVCLYPVR,inactive
20,EASNCFAIRHFENKFAVETLICMIDCGCITYVGL,inactive

# Same assay, conditions: random library (experiment): 2
row,Sequence,amyloid nucleation score
1,EASNCFAIRHFENKFAVETLICMDNCDRVHCGRA,inactive
2,EASNCFAIRHFENKFAVETLICMDSICNWDYIMH,3.63
3,EASNCFAIRHFENKFAVETLICMDSWGMYVRRYM,inactive
4,EASNCFAIRHFENKFAVETLICMDVCLWFRWYVS,inactive
5,EASNCFAIRHFENKFAVETLICMDYILTDRVRSV,inactive
6,EASNCFAIRHFENKFAVETLICME,inactive
7,EASNCFAIRHFENKFAVETLICMEERARPREDEL,inactive
8,EASNCFAIRHFENKFAVETLICMEIYCLSLYFEA,inactive
9,EASNCFAIRHFENKFAVETLICMEMMVFWTISFV,inactive
10,EASNCFAIRHFENKFAVETLICMENVSIY,inactive
11,EASNCFAIRHFENKFAVETLICMESMKVGILDQS,inactive
12,EASNCFAIRHFENKFAVETLICMEVIFRSFISLV,inactive
13,EASNCFAIRHFENKFAVETLICMEYLCSNSEAKH,1.71
14,EASNCFAIRHFENKFAVETLICMFCCLGYRCLLI,inactive
15,EASNCFAIRHFENKFAVETLICMFCIGLASPLWL,inactive
16,EASNCFAIRHFENKFAVETLICMFESGIFVVLCS,inactive
17,EASNCFAIRHFENKFAVETLICMFFMVSLGTVAM,inactive
18,EASNCFAIRHFENKFAVETLICMFFNFDDFVASS,5.3
19,EASNCFAIRHFENKFAVETLICMFIAYL,inactive
20,EASNCFAIRHFENKFAVETLICMFKLVTKSYIKW,0.439
21,EASNCFAIRHFENKFAVETLICMFLG,4.54

row,Sequence,amyloid nucleation score
1,EASNCFAIRHFENKFAVETLICMFNQNV,5.55
2,EASNCFAIRHFENKFAVETLICMFRTPSLHLLFS,inactive
3,EASNCFAIRHFENKFAVETLICMFSIIAG,inactive
4,EASNCFAIRHFENKFAVETLICMFSNCSFFCVKL,0.741
5,EASNCFAIRHFENKFAVETLICMFTVSCLFFHIS,inactive
6,EASNCFAIRHFENKFAVETLICMFVSKWASKYEL,-0.077
7,EASNCFAIRHFENKFAVETLICMFWFDTLCCMWK,1.51
8,EASNCFAIRHFENKFAVETLICMFWFYWTMFFES,-0.191
9,EASNCFAIRHFENKFAVETLICMFYIERINYTRR,inactive
10,EASNCFAIRHFENKFAVETLICMGCLCCCRFSWK,8.76
11,EASNCFAIRHFENKFAVETLICMGKDYSKIGVSG,inactive
12,EASNCFAIRHFENKFAVETLICMGKIW,4.69
13,EASNCFAIRHFENKFAVETLICMGRIDWSDDSHS,inactive
14,EASNCFAIRHFENKFAVETLICMGWTRKSLPECI,inactive
15,EASNCFAIRHFENKFAVETLICMHFVVVWACVLS,inactive
16,EASNCFAIRHFENKFAVETLICMHGKLGSFIAC,inactive
17,EASNCFAIRHFENKFAVETLICMHLPEVELGQWW,1.06
18,EASNCFAIRHFENKFAVETLICMHWSWEKFPS,inactive
19,EASNCFAIRHFENKFAVETLICMHYSGLRVRVCC,inactive
20,EASNCFAIRHFENKFAVETLICMHYYAVYHSPSQ,4.39
21,EASNCFAIRHFENKFAVETLICMIFGWLILPDFW,0.693

# Same assay, conditions: random library (experiment): 3
row,Sequence,amyloid nucleation score
1,EASNCFAIRHFENKFAVETLICMDQCWKESGAWQ,1.37
2,EASNCFAIRHFENKFAVETLICMDSV,inactive
3,EASNCFAIRHFENKFAVETLICMDV,inactive
4,EASNCFAIRHFENKFAVETLICMDVCTQRRSLM,2.65
5,EASNCFAIRHFENKFAVETLICMDVLLP,inactive
6,EASNCFAIRHFENKFAVETLICMDWQHPV,inactive
7,EASNCFAIRHFENKFAVETLICMEDGRQWSGIVR,inactive
8,EASNCFAIRHFENKFAVETLICMEGPLFSGWFRR,6.86
9,EASNCFAIRHFENKFAVETLICMEGQKAYFRSMC,0.49
10,EASNCFAIRHFENKFAVETLICMELTLDLFLDRQ,1.19
11,EASNCFAIRHFENKFAVETLICMEPERMLLRDDG,inactive
12,EASNCFAIRHFENKFAVETLICMEQAEPRRVKRS,2.4
13,EASNCFAIRHFENKFAVETLICMEVQSSLFRKVW,inactive
14,EASNCFAIRHFENKFAVETLICMFDASYLMSNLM,inactive
15,EASNCFAIRHFENKFAVETLICMFGFWFRCSVMV,inactive
16,EASNCFAIRHFENKFAVETLICMFKVGIYPFQND,0.426
17,EASNCFAIRHFENKFAVETLICMFSAIVADRFLG,inactive
18,EASNCFAIRHFENKFAVETLICMFWWD,inactive
19,EASNCFAIRHFENKFAVETLICMFYLIGNSTFNS,inactive

row,Sequence,amyloid nucleation score
1,EASNCFAIRHFENKFAVETLICMGCGG,8.26
2,EASNCFAIRHFENKFAVETLICMGDRSVWGEMRR,6.07
3,EASNCFAIRHFENKFAVETLICMGGDWLSGCRRQ,7.54
4,EASNCFAIRHFENKFAVETLICMGGRRLGVEGTR,inactive
5,EASNCFAIRHFENKFAVETLICMGHSLNCAWSPG,5.27
6,EASNCFAIRHFENKFAVETLICMGMRLWVTLSSL,inactive
7,EASNCFAIRHFENKFAVETLICMGNVYGF,8.59
8,EASNCFAIRHFENKFAVETLICMGPH,3.35
9,EASNCFAIRHFENKFAVETLICMGPWGTVCWLVG,inactive
10,EASNCFAIRHFENKFAVETLICMGRDVNVYNMQR,9.71
11,EASNCFAIRHFENKFAVETLICMGRSSSWRSCV,inactive
12,EASNCFAIRHFENKFAVETLICMGSFS,4.79
13,EASNCFAIRHFENKFAVETLICMGTWWIGRRIGT,inactive
14,EASNCFAIRHFENKFAVETLICMGVTECRTGDSY,inactive
15,EASNCFAIRHFENKFAVETLICMGWQRWF,5.78
16,EASNCFAIRHFENKFAVETLICMGYKLKHIHKEQ,1.68
17,EASNCFAIRHFENKFAVETLICMHQPRLWRYGKA,inactive
18,EASNCFAIRHFENKFAVETLICMHTTLSGKTCGE,inactive
19,EASNCFAIRHFENKFAVETLICMHVMSIFTVM,0.98
